Results published in patent US20250214977A1, “STAT6 INHIBITORS AND USES THEREOF” (Kymera Therapeutics, Inc., priority 2024, published 2025).

What follows are compounds tested against T1, biotinylated truncated STAT6 (123-632)-avi (Homo sapiens, UniProt P42226) (assay: Homogenous Time-Resolved Fluorescence (HTRF) binding assay). Details: 0.15 nM biotinylated truncated STAT6 (123-632)-avi, 20 nM fluorescein-labeled probe, 30 minutes at room temperature.
T1 sequence (P42226 123-632 limits assumed): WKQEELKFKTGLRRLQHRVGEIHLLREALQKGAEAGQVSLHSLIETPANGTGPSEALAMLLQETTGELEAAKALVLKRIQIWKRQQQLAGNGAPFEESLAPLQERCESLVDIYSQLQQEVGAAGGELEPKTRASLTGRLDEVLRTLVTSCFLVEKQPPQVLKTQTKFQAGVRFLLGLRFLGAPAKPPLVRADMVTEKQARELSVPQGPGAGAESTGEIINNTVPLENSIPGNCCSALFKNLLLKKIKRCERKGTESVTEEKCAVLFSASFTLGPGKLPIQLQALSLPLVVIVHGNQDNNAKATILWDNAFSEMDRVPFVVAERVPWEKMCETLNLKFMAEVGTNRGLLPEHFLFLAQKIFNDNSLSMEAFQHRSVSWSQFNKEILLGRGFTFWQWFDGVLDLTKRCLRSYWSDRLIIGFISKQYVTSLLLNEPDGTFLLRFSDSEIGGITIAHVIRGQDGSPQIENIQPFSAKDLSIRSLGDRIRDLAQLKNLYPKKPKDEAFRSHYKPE

| SMILES | IC50 |
| --- | --- |
| COc1ccccc1-c1cc(C2=CCCN(C(=O)CCn3ccnn3)C2)c(F)c2[nH]c(C(=O)N3CCN(c4ncc(C)cc4OC)CC3)cc12 [Example I-939] | < 0.1 µM |
| COc1ccccc1-c1cc(C2=CCCN(C(=O)CCn3ccnn3)C2)c(F)c2[nH]c(C(=O)N3CCN(c4ncc(C#N)cc4OC)CC3)cc12 [Example I-940] | < 0.1 µM |
| COc1ccccc1-c1cc(C2=CCCN(C(=O)CCn3ccnn3)C2)c(F)c2[nH]c(C(=O)N3CCN(c4ncc(C(F)(F)F)cc4OC)CC3)cc12 [Example I-941] | < 0.1 µM |
| CCn1c(N2CCN(C(=O)c3cc4c(-c5ccccc5OC)cc(C5=CCCN(C(=O)CCn6ccnn6)C5)c(F)c4[nH]3)CC2)nc2ccccc21 [Example I-942] | < 0.1 µM |
| COc1ccccc1-c1cc(C2=CCCN(C(=O)CCn3ccnn3)C2)c(F)c2[nH]c(C(=O)N3CCN(c4nc5ccccc5n4CC4CC4)CC3)cc12 [Example I-943] | < 0.1 µM |
| COc1ccccc1-c1cc(C2=CCCN(C(=O)CCn3ccnn3)C2)c(F)c2[nH]c(C(=O)N3CCN(c4cnc5nccnc5c4C)CC3)cc12 [Example I-944] | < 0.1 µM |
| COc1ccccc1-c1cc(C2=CCCN(C(=O)CCn3ccnn3)C2)c(F)c2[nH]c(C(=O)N3CCN(c4ccc5nn(C)cc5c4C)CC3)cc12 [Example I-945] | 0.1 to 1 µM |
| COc1ccccc1-c1cc(C2=CCCN(C(=O)CCn3ccnn3)C2)c(F)c2[nH]c(C(=O)N3CCN(c4ncnc5[nH]cnc45)CC3)cc12 [Example I-946] | < 0.1 µM |
| COc1ccccc1-c1cc(C2=CCCN(C(=O)CCn3ccnn3)C2)c(F)c2[nH]c(C(=O)N3CCN(c4ccc5c(c4)Nc4ccccc4CC5)CC3)cc12 [Example I-947] | 1 to 10 µM |
| COc1ccccc1-c1cc(C2=CCCN(C(=O)CCn3ccnn3)C2)c(F)c2[nH]c(C(=O)N3CCN(c4ccnc(Nc5ccc(C#N)cc5)n4)CC3)cc12 [Example I-948] | < 0.1 µM |
| COc1ccccc1-c1cc(C2=CCCN(C(=O)CCn3ccnn3)C2)c(F)c2[nH]c(C(=O)N3CCN(c4cc(C)cn5ncnc45)CC3)cc12 [Example I-950] | < 0.1 µM |
| COc1ccccc1-c1cc(C2=CCCN(C(=O)CCn3ccnn3)C2)c(F)c2[nH]c(C(=O)N3CCN(c4cccc5nonc45)CC3)cc12 [Example I-951] | < 0.1 µM |
| COc1ccccc1-c1cc(C2=CCCN(C(=O)CCn3ccnn3)C2)c(F)c2[nH]c(C(=O)N3CCN(c4cc5ccccc5nc4O)CC3)cc12 [Example I-952] | < 0.1 µM |
| COc1ccccc1-c1cc(C2=CCCN(C(=O)CCn3ccnn3)C2)c(F)c2[nH]c(C(=O)N3CCN(c4cc(F)c5ncccc5c4)CC3)cc12 [Example I-953] | < 0.1 µM |
| COc1ccccc1-c1cc(C2=CCCN(C(=O)CCn3ccnn3)C2)c(F)c2[nH]c(C(=O)N3CCN(c4cncc5cccnc45)CC3)cc12 [Example I-954] | < 0.1 µM |
| COc1cc2ncnc(N3CCN(C(=O)c4cc5c(-c6ccccc6OC)cc(C6=CCCN(C(=O)CCn7ccnn7)C6)c(F)c5[nH]4)CC3)c2cc1O [Example I-955] | < 0.1 µM |
| COc1cc(N2CCN(C(=O)c3cc4c(-c5ccccc5OC)cc(C5=CCCN(C(=O)CCn6ccnn6)C5)c(F)c4[nH]3)CC2)c2ccccc2c1 [Example I-957] | 0.1 to 1 µM |
| COc1cc(C)c(N2CCN(C(=O)c3cc4c(-c5ccccc5OC)cc(C5=CCCN(C(=O)CCn6ccnn6)C5)c(F)c4[nH]3)CC2)c(C)n1 [Example I-958] | 0.1 to 1 µM |
| COc1ccccc1-c1cc(C2=CCCN(C(=O)CCn3ccnn3)C2)c(F)c2[nH]c(C(=O)N3CCN(c4c(C)ccc5[nH]ncc45)CC3)cc12 [Example I-959] | < 0.1 µM |
| COc1ccc(N2CCN(C(=O)c3cc4c(-c5ccccc5OC)cc(C5=CCCN(C(=O)CCn6ccnn6)C5)c(F)c4[nH]3)CC2)cc1 [Example I-960] | < 0.1 µM |

| SMILES | IC50 |
| --- | --- |
| COc1ccccc1-c1cc(C2=CCCN(C(=O)CCn3ccnn3)C2)c(F)c2[nH]c(C(=O)N3CCN(c4ncc(N5CCCCC5)cc4OC4CC4)CC3)cc12 [Example I-961] | < 0.1 µM |
| COc1ccccc1-c1cc(C2=CCCN(C(=O)CCn3ccnn3)C2)c(F)c2[nH]c(C(=O)N3CCN(c4cc(OC)c5c(c4)nnn5C)CC3)cc12 [Example I-962] | < 0.1 µM |
| COc1ccccc1-c1cc(C2=CCCN(C(=O)CCn3ccnn3)C2)c(F)c2[nH]c(C(=O)N3CCN(c4ccc5cn[nH]c5c4)CC3)cc12 [Example I-963] | < 0.1 µM |
| COc1ccccc1-c1cc(C2=CCCN(C(=O)CCn3ccnn3)C2)c(F)c2[nH]c(C(=O)N3CCN(c4cc(C)cc(Br)c4OC)CC3)cc12 [Example I-964] | 0.1 to 1 µM |
| COc1ccccc1-c1cc(C2=CCCN(C(=O)CCn3ccnn3)C2)c(F)c2[nH]c(C(=O)N3CCN(c4c(O)ccc5ccccc45)CC3)cc12 [Example I-965] | 0.1 to 1 µM |
| COc1ccccc1-c1cc(C2=CCCN(C(=O)CCn3ccnn3)C2)c(F)c2[nH]c(C(=O)N3CCN(c4nccc5[nH]ccc45)CC3)cc12 [Example I-966] | < 0.1 µM |
| CCn1c(N2CCN(C(=O)c3cc4c(-c5ccccc5OC)cc(C5=CCCN(C(=O)CCn6ccnn6)C5)c(F)c4[nH]3)CC2)cc2ccccc21 [Example I-967] | 0.1 to 1 µM |
| COc1ccccc1-c1cc(C2=CCCN(C(=O)CCn3ccnn3)C2)c(F)c2[nH]c(C(=O)N3CCN(c4ccccc4C(F)(F)F)CC3)cc12 [Example I-968] | 0.1 to 1 µM |
| CCc1ccccc1N1CCN(C(=O)c2cc3c(-c4ccccc4OC)cc(C4=CCCN(C(=O)CCn5ccnn5)C4)c(F)c3[nH]2)CC1 [Example I-969] | 0.1 to 1 µM |
| COc1ccccc1-c1cc(C2=CCCN(C(=O)CCn3ccnn3)C2)c(F)c2[nH]c(C(=O)N3CCN(c4ccc(=O)n(C)c4)CC3)cc12 [Example I-971] | < 0.1 µM |
| COc1ccccc1-c1cc(C2=CCCN(C(=O)CCn3ccnn3)C2)c(F)c2[nH]c(C(=O)N3CCN(c4c(F)ccc5cnccc45)CC3)cc12 [Example I-972] | < 0.1 µM |
| COc1cccnc1N1CCN(C(=O)c2cc3c(-c4cccc(F)c4OC)cc(C4=CCCN(C(=O)CCn5ccnn5)C4)c(F)c3[nH]2)C(C)C1 (stereo not shown) [Example I-973] | 0.1 to 1 µM |
| COc1ccccc1-c1cc(C2=CCCN(C(=O)CCn3ccnn3)C2)c(F)c2[nH]c(C(=O)N3CCc4ncccc43)cc12 [Example I-974] | < 0.1 µM |
| COc1ccccc1-c1cc(C2=CCCN(C(=O)CCn3ccnn3)C2)c(F)c2[nH]c(C(=O)N3Cc4ccc(C#N)cc4C3)cc12 [Example I-975] | < 0.1 µM |
| COc1ccccc1-c1cc(C2=CCCN(C(=O)CCn3ccnn3)C2)c(F)c2[nH]c(C(=O)N(C)Cc3ccc4c(c3)OCO4)cc12 [Example I-976] | < 0.1 µM |
| COc1ccccc1-c1cc(C2=CCCN(C(=O)CCn3ccnn3)C2)c(F)c2[nH]c(C(=O)N3CCc4cc(C(F)(F)F)ccc4C3)cc12 [Example I-977] | < 0.1 µM |
| COc1ccccc1-c1cc(C2=CCCN(C(=O)CCn3ccnn3)C2)c(F)c2[nH]c(C(=O)N(C)C3Cc4ccccc4C3)cc12 [Example I-978] | 0.1 to 1 µM |
| COc1ccc(NC(=O)c2cc3c(-c4ccccc4OC)cc(C4=CCCN(C(=O)CCn5ccnn5)C4)c(F)c3[nH]2)cn1 [Example I-979] | 0.1 to 1 µM |
| CCS(=O)(=O)N1CCN(C(=O)c2cc3c(-c4ccccc4OC)cc(C4=CCCN(C(=O)CCn5ccnn5)C4)c(F)c3[nH]2)CC1 [Example I-980] | < 0.1 µM |
| COc1ccccc1-c1cc(C2=CCCN(C(=O)CCn3ccnn3)C2)c(F)c2[nH]c(C(=O)N3CCC(n4c(=O)[nH]c5ncccc54)CC3)cc12 [Example I-981] | 0.1 to 1 µM |
